# Measured values as given in the supplement of paper PMC4604168 (melanoma cell lines).
# The other results are listed elsewhere or left out. Many values rest on one well or one pass, so single values are uncertain.
# Tested on: 501Mel
# Experiment: cell count relative to DMSO control; melanoma cells; higher = more viable cells
# Details: library dose: low library concentration; 72 h
# 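Note: cell number obtained by counting DAPI-stained nuclei in high-throughput microscope images with image analysis software, screen run in 1,536-well plates.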
row,SMILES,cell count
1,"O=C(CCCCCCC(=O)Nc1ccccc1)NO [vorinostat] + CC(C)CCN1c2nc(Nc3cc(F)c(O)c(F)c3)ncc2N(C)C(=O)C1C [BID1870] (first compound 0.08 µM, partner dose 0.2 µM)",103%
2,"Cn1c(Nc2ccc(C(F)(F)F)cc2)nc2cc(Oc3ccnc(-c4ncc(C(F)(F)F)[nH]4)c3)ccc21 + Cn1cc(/C=C2\C(=O)Nc3cccnc32)c2ccccc21 [GW441756] (first compound 0.08 µM, partner dose 0.4 µM)",61.8%
3,"Nc1cccc2c1CN(C1CCC(=O)NC1=O)C2=O (centres undefined) [lenalidomide] + O=c1cc(-c2cccc3c2Sc2ccccc2S3)oc(N2CCOCC2)c1 [KU55933] (first compound 1 µM, partner dose 1 µM)",106%
4,"O=C(CCCCCCC(=O)Nc1ccccc1)NO [vorinostat] + COc1cc2ncnc(Nc3ccc(Oc4ccccc4)cc3)c2cc1OC [SrcI1] (first compound 0.08 µM, partner dose 2 µM)",89.1%
5,"Nc1cccc2c1CN(C1CCC(=O)NC1=O)C2=O (centres undefined) [lenalidomide] + CC(C)CCN1c2nc(Nc3cc(F)c(O)c(F)c3)ncc2N(C)C(=O)C1C [BID1870] (first compound 1 µM, partner dose 0.2 µM)",99%
6,"C#Cc1cccc(Nc2ncnc3cc(OCCOC)c(OCCOC)cc23)c1 [erlotinib] + Cn1cc(/C=C2\C(=O)Nc3cccnc32)c2ccccc21 [GW441756] (first compound 0.8 µM, partner dose 0.4 µM)",76.4%
7,"COCC[n+]1c2c(n(Cc3cnccn3)c1C)C(=O)c1ccccc1C2=O + Cn1cc(/C=C2\C(=O)Nc3cccnc32)c2ccccc21 [GW441756] (first compound 0.0004 µM, partner dose 0.4 µM)",90.9%
8,"COCC[n+]1c2c(n(Cc3cnccn3)c1C)C(=O)c1ccccc1C2=O + CCCCCCCCCCCC1=C(O)C(=O)C=C(O)C1=O [Embelin] (first compound 0.0004 µM, partner dose 1.2 µM)",101%
9,"O=C(CCCCCCC(=O)Nc1ccccc1)NO [vorinostat] + COc1cc(N2CCC(N3CCN(C)CC3)CC2)ccc1Nc1ncc(Cl)c(Nc2ccccc2S(=O)(=O)C(C)C)n1 [NVP-TAE684] (first compound 0.08 µM, partner dose 0.08 µM)",85.5%
10,"Nc1cccc2c1CN(C1CCC(=O)NC1=O)C2=O (centres undefined) [lenalidomide] + O=S(=O)(c1ccccc1)N(CC(F)(F)F)c1ccc(C(O)(C(F)(F)F)C(F)(F)F)cc1 [T0901317] (first compound 1 µM, partner dose 1.4 µM)",81.9%
11,"Cn1c(Nc2ccc(C(F)(F)F)cc2)nc2cc(Oc3ccnc(-c4ncc(C(F)(F)F)[nH]4)c3)ccc21 + COc1ccc2c(c1)CCC1C2CCC2(C)C(NCCCCCCN3C(=O)C=CC3=O)CCC12 [U73122] (first compound 0.08 µM, partner dose 0.4 µM)",62%
12,"Cn1c(Nc2ccc(C(F)(F)F)cc2)nc2cc(Oc3ccnc(-c4ncc(C(F)(F)F)[nH]4)c3)ccc21 + O=C1NC(=O)/C(=C/c2ccc(-c3ccc(F)cc3O)o2)S1 [AS252424] (first compound 0.08 µM, partner dose 1 µM)",57.9%
13,"COCC[n+]1c2c(n(Cc3cnccn3)c1C)C(=O)c1ccccc1C2=O + O=c1cc(-c2cccc3c2Sc2ccccc2S3)oc(N2CCOCC2)c1 [KU55933] (first compound 0.0004 µM, partner dose 1 µM)",81.1%
14,"O=C(CCCCCCC(=O)Nc1ccccc1)NO [vorinostat] + COc1ccc2c(c1)CCC1C2CCC2(C)C(NCCCCCCN3C(=O)C=CC3=O)CCC12 [U73122] (first compound 0.08 µM, partner dose 0.4 µM)",97.5%
15,"C#Cc1cccc(Nc2ncnc3cc(OCCOC)c(OCCOC)cc23)c1 [erlotinib] + c1cc(-c2cnn3cc(-c4ccc(OCCN5CCCCC5)cc4)cnc23)ccn1 [Dorsomorphin] (first compound 0.8 µM, partner dose 0.4 µM)",75.7%
16,"C#Cc1cccc(Nc2ncnc3cc(OCCOC)c(OCCOC)cc23)c1 [erlotinib] + COc1cc2ncnc(Nc3ccc(Oc4ccccc4)cc3)c2cc1OC [SrcI1] (first compound 0.8 µM, partner dose 2 µM)",85.3%
17,"Nc1cccc2c1CN(C1CCC(=O)NC1=O)C2=O (centres undefined) [lenalidomide] + CCN(CC)CCCCNc1ncc2cc(-c3cc(OC)cc(OC)c3)c(NC(=O)NC(C)(C)C)nc2n1 [PD173074] (first compound 1 µM, partner dose 0.1 µM)",103%

row,SMILES,cell count
1,"COCC[n+]1c2c(n(Cc3cnccn3)c1C)C(=O)c1ccccc1C2=O + COc1ccc2c(c1)CCC1C2CCC2(C)C(NCCCCCCN3C(=O)C=CC3=O)CCC12 [U73122] (first compound 0.0004 µM, partner dose 0.4 µM)",109%
2,"Cn1c(Nc2ccc(C(F)(F)F)cc2)nc2cc(Oc3ccnc(-c4ncc(C(F)(F)F)[nH]4)c3)ccc21 + O=C(Nc1ccccc1)c1cc([N+](=O)[O-])ccc1Cl [GW9662] (first compound 0.08 µM, partner dose 2 µM)",60%
3,"C#Cc1cccc(Nc2ncnc3cc(OCCOC)c(OCCOC)cc23)c1 [erlotinib] + CC(C)CCN1c2nc(Nc3cc(F)c(O)c(F)c3)ncc2N(C)C(=O)C1C [BID1870] (first compound 0.8 µM, partner dose 0.2 µM)",80.6%
4,"Nc1cccc2c1CN(C1CCC(=O)NC1=O)C2=O (centres undefined) [lenalidomide] + O=C(O)C(=O)Nc1sc2c(c1C(=O)O)CCNC2 [TCS401] (first compound 1 µM, partner dose 1.66667 µM)",99.1%
5,"C#Cc1cccc(Nc2ncnc3cc(OCCOC)c(OCCOC)cc23)c1 [erlotinib] + COC(=O)c1sccc1S(=O)(=O)Nc1ccc(Nc2ccccc2)cc1OC [GSK0660] (first compound 0.8 µM, partner dose 1 µM)",123%
6,"COCC[n+]1c2c(n(Cc3cnccn3)c1C)C(=O)c1ccccc1C2=O + COC(=O)c1sccc1S(=O)(=O)Nc1ccc(Nc2ccccc2)cc1OC [GSK0660] (first compound 0.0004 µM, partner dose 1 µM)",79.6%
7,"COCC[n+]1c2c(n(Cc3cnccn3)c1C)C(=O)c1ccccc1C2=O + c1cc(-c2cnn3cc(-c4ccc(OCCN5CCCCC5)cc4)cnc23)ccn1 [Dorsomorphin] (first compound 0.0004 µM, partner dose 0.4 µM)",105%
8,"COCC[n+]1c2c(n(Cc3cnccn3)c1C)C(=O)c1ccccc1C2=O + COc1cc(N2CCC(N3CCN(C)CC3)CC2)ccc1Nc1ncc(Cl)c(Nc2ccccc2S(=O)(=O)C(C)C)n1 [NVP-TAE684] (first compound 0.0004 µM, partner dose 0.08 µM)",106%
9,"Cn1c(Nc2ccc(C(F)(F)F)cc2)nc2cc(Oc3ccnc(-c4ncc(C(F)(F)F)[nH]4)c3)ccc21 + COc1ccc(-c2ccc3c(N4CCOCC4)nc(N4C[C@@H](C)O[C@@H](C)C4)nc3n2)cc1CO [KU0063794] (first compound 0.08 µM, partner dose 0.02 µM)",62.6%
10,"C#Cc1cccc(Nc2ncnc3cc(OCCOC)c(OCCOC)cc23)c1 [erlotinib] + Oc1cc(-c2nc(-c3ccccc3)[nH]c2-c2ccncc2)ccc1Cl [L779450] (first compound 0.8 µM, partner dose 0.2 µM)",86.1%
11,"Nc1cccc2c1CN(C1CCC(=O)NC1=O)C2=O (centres undefined) [lenalidomide] + O=C(Nc1ccccc1)c1cc([N+](=O)[O-])ccc1Cl [GW9662] (first compound 1 µM, partner dose 2 µM)",104%
12,"Nc1cccc2c1CN(C1CCC(=O)NC1=O)C2=O (centres undefined) [lenalidomide] + Oc1cc(-c2nc(-c3ccccc3)[nH]c2-c2ccncc2)ccc1Cl [L779450] (first compound 1 µM, partner dose 0.2 µM)",82.3%
13,"O=C(CCCCCCC(=O)Nc1ccccc1)NO [vorinostat] + Oc1cc(-c2nc(-c3ccccc3)[nH]c2-c2ccncc2)ccc1Cl [L779450] (first compound 0.08 µM, partner dose 0.2 µM)",82.3%
14,"Nc1cccc2c1CN(C1CCC(=O)NC1=O)C2=O (centres undefined) [lenalidomide] + COc1cc(N2CCC(N3CCN(C)CC3)CC2)ccc1Nc1ncc(Cl)c(Nc2ccccc2S(=O)(=O)C(C)C)n1 [NVP-TAE684] (first compound 1 µM, partner dose 0.08 µM)",73.2%
15,"COCC[n+]1c2c(n(Cc3cnccn3)c1C)C(=O)c1ccccc1C2=O + Cc1cc([N+](=O)[O-])ccc1NS(=O)(=O)c1cc(Cl)ccc1Cl [FH535] (first compound 0.0004 µM, partner dose 1 µM)",105%
16,"O=C(CCCCCCC(=O)Nc1ccccc1)NO [vorinostat] + COC(=O)c1sccc1S(=O)(=O)Nc1ccc(Nc2ccccc2)cc1OC [GSK0660] (first compound 0.08 µM, partner dose 1 µM)",85.1%
17,"Nc1cccc2c1CN(C1CCC(=O)NC1=O)C2=O (centres undefined) [lenalidomide] + Cn1cc(/C=C2\C(=O)Nc3cccnc32)c2ccccc21 [GW441756] (first compound 1 µM, partner dose 0.4 µM)",108%
